Measurements from publication PMC12136788.
This is one part of the list.

B1: chr2:222942681:222942782:+|3pUTR|ENSG00000123983|msi1|total|mutant (ssRNA)
RNA: GGGAGUUCUACAGUCCGACGAUCAAAAUCCGUGUUUUUCCCCGUUUGCACUGAUGCGUGUAUGGAUGUGUGUGAGUCAGUGGCCGCUUAUUUAAAAAGCACCUUAUCCUUUCUCCCAUAACCUUUGUACACUAAAAAAUGAAACAACAGAGGAUUGAGCAUCA
B2: chr9:122240152:122240253:-|3pUTR|ENSG00000119446|msi1|total|mutant (ssRNA)
RNA: GGGAGUUCUACAGUCCGACGAUCCUUCUUGGAGUACCGAAUUCACCAUUUUAUCCGUAAGUCUUCAAAGGAUUAUGGUGGACCCGAACUUACACCGUGCAAAACCGUCUUCUAUUUUUAACCGGAACUCCGAAAAAACUCCGACAACAGAGGAUUGAGCAUCA
B3: ENSG00000124766:be:win_3301|3pUTR|ENSG00000124766|bound_else_gene|NA|bound_elsewhere_windowed (ssRNA)
RNA: GGGAGUUCUACAGUCCGACGAUCAAUCUGCAGGCUUCUUAAAGUGACAGUAUCCCUUAACCUGCCACCAGUGUCCACCCUCCGGCCCCCGUCUUGUAAAAAGGGGAGGAGAAUUAGCCAAACACUGUAAGCUUUUAAGAAAAACAACAGAGGAUUGAGCAUCA
B4: chr17:67340809:67340863:-|CDS_3pUTR|ENSG00000197170|msi1_unk|total|mutant (ssRNA)
RNA: GGGAGUUCUACAGUCCGACGAUCACAAAACUACGCAUCUCACCGCCAAAGAGGAGAUGAUACAUAAUCUACAAUAAGGGUCUCCGUGCUUCCGAAAAAAGUUAAAAUUGGAAGUCAUUAAAAAAAGACUGUUAUAAUGGUGUACAACAGAGGAUUGAGCAUCA
B5: chr7:7607225:7607326:+|3pUTR|ENSG00000164654|msi1|FALSE|bound_elsewhere (ssRNA)
RNA: GGGAGUUCUACAGUCCGACGAUCUUUGAGUGAUUUUGAUAUGCUUCACAGAGACAAAUGCUGCCAAAAUAAACAUCGAAGUAUAGACAUGAGUUCUGUUCAGCAGGUUGAAAAGUCUGAUUUAGAAAAACUUUCUAAGUUUUGCAACAGAGGAUUGAGCAUCA
B6: chr21:32314052:32314153:-|3pUTR|ENSG00000142207|msi1|FALSE|unique (ssRNA)
RNA: GGGAGUUCUACAGUCCGACGAUCCAUCUCAAAAAAAUAAAAAAAUAAAGUUUGUUUUUCUAUAAAAAGUCAUAACAAAGUAUUAGUAUGACUUUUUGAAUAAGUUAAUUUCUGCCAGUGUUUAAUUAUUUUAUUAAAGAAAAGCAACAGAGGAUUGAGCAUCA
B7: chr5:78476397:78476521:+|3pUTR|ENSG00000085365|msi1|total|mutant (ssRNA)
RNA: GGGAGUUCUACAGUCCGACGAUCAUAUAAGAAGUUUAUAUAAUAUGCAGUACAUUAUCCAAAAGAGAAGGCCGUUAAUGCAGCCGAAAGCCGUGGUAAUAAUUCCUUUUUAAAAAAAUUUCGGCCGUCAUACCGUAACAUUUUCAACAGAGGAUUGAGCAUCA
B8: chr8:143803364:143803465:-|CDS|ENSG00000180900|msi1|FALSE|unique (ssRNA)
RNA: GGGAGUUCUACAGUCCGACGAUCACCCUCACCGUGCUGGUCUGUGACGGCUUUGAGGCCAGCACCGACGCAGCCCUGGAGGUUAGCGAUCCCGCCCCGGGGACCGGGCCUCCCUCUGGCCCAGCCCAAGGUGUUGUGAGCCGCCAACAGAGGAUUGAGCAUCA
B9: chr9:114377124:114377225:-|CDS|ENSG00000106948|msi1|FALSE|unique (ssRNA)
RNA: GGGAGUUCUACAGUCCGACGAUCUCCGUUGAACUCAGCCCGGCAAGGUCCUGGAGCAGUGGGACAGUGAGCCUCGACCACCCUAGUGACAGCCUUGAUUCUACCUGGGAAGGAGAGACCGAUGGCCCCCAGCCCACUGCCCUGCAACAGAGGAUUGAGCAUCA
B10: ENSG00000127483:stop:overlap|stop_codon|ENSG00000127483|stop_codon|NA|stop_codon (ssRNA)
RNA: GGGAGUUCUACAGUCCGACGAUCCCAAAAAGGAGAGAGCUGAUAGUAUUCAUUCCACUCUUUUCAUAAUUGGUCAGAACAGUUAGAAAUUGCUUUUAACUAUAGUCAUGCAUUGCUUAACAAUGGGUAUACAUUCUGAGAGAUCAACAGAGGAUUGAGCAUCA
B11: ENSG00000165868:stop:overlap|stop_codon|ENSG00000165868|stop_codon|NA|stop_codon (ssRNA)
RNA: GGGAGUUCUACAGUCCGACGAUCAGCAGCCGGCCAAGCAGUUCAUGAGACAAGCUGCCUACCAGGCGGACCCUAUGGAUCUUUAGGAGUAGAUUAUGAGUUCGAAAAACUUCUGUAUAAAAUAUUUGGAGAGGAUUUUAUUGACAACAGAGGAUUGAGCAUCA
B12: ENSG00000067715:stop:overlap|stop_codon|ENSG00000067715|stop_codon|NA|stop_codon (ssRNA)
RNA: GGGAGUUCUACAGUCCGACGAUCAGGAGAAGUUUAUGAAUGAGUUGCAUAAAAUUCCAUUUCAAAGGAAAGAGAGUACCAAUUAGACAAGGGAAGAAGAUGAGAGACUGCCUGAACAGCAUCACUUUUGUAAACUGAGAGUUCCAACAGAGGAUUGAGCAUCA
B13: ENSG00000096070:stop:overlap|stop_codon|ENSG00000096070|stop_codon|NA|stop_codon (ssRNA)
RNA: GGGAGUUCUACAGUCCGACGAUCAGAAGGAUCCUGCACACAUCUUCGCAGAACCAGUCAACUUGAGUGAGGUUUUAUAUGUUUAGGUUCCAGAUUACCUGGAAUUCAUAUCCAAGCCAAUGGAUUUUUCUACUAUGAGGCGGACAACAGAGGAUUGAGCAUCA
B14: ENSG00000070961:be:win_551|CDS|ENSG00000070961|bound_else_gene|NA|bound_elsewhere_windowed (ssRNA)
RNA: GGGAGUUCUACAGUCCGACGAUCUGCAGAGCCGAAUUGAACAAGAACAGAAGUUCACUGUCAUCAGGGGUGGUCAGGUCAUUCAGAUACCUGUAGCUGACAUUACUGUUGGAGAUAUUGCUCAAGUGAAAUAUGGUGAUCUUCCAACAGAGGAUUGAGCAUCA
B15: chr5:16781720:16781826:-|CDS|ENSG00000145555|unk|FALSE|bound_elsewhere (ssRNA)
RNA: GGGAGUUCUACAGUCCGACGAUCCUUCACAGCCCCAUCAUGGAAGCUUUCGGCAAUGCGAAGACCGUGUACAACAACAACUCUAGUCGCUUUGGGAAGUUUGUUCAGCUGAACAUCUGUCAGAAAGGAAAUAUUCAGGGCGGGCAACAGAGGAUUGAGCAUCA
B16: chr2:235053981:235054083:+|3pUTR|ENSG00000130147|unk|total|mutant (ssRNA)
RNA: GGGAGUUCUACAGUCCGACGAUCCUCCUCCAUCGAGGGAGAGGCCUGAAGGGACUGCCUACUGCAGCUCGUUGCCAAUCACACCGCUUUCUAUUUGUUAAGUAUAAAUUUAAAUUUAAAAUCACUUUUUUAACGAAUGGGGGGCAACAGAGGAUUGAGCAUCA
B17: chr14:53038166:53038268:-|3pUTR|ENSG00000100523|unk|total|mutant (ssRNA)
RNA: GGGAGUUCUACAGUCCGACGAUCGAGCUUUUGGCAGAGUCUUCGGGGUUUUCCCGGUAUAAAAUCAUAUCAGCGAAGAGAGCCCGUUUGAUUUCUUUUCCCAGUUGGAUGCCUUUUAUUUAUUUCUCUUGCCUGAUUGCUCUACAACAGAGGAUUGAGCAUCA
B18: chrX:152166439:152166540:-|3pUTR|ENSG00000011677|unk|FALSE|unique (ssRNA)
RNA: GGGAGUUCUACAGUCCGACGAUCCACCACAAGCAGAUUCUCCCUGCCCACCGGCUGAACAAAGCUCCUAAGGGGUGUAUCAUUAGCUGCUGGUUGCCUUUUCAUCCAUCCUUUCCCCGUCCCCUGCUUCCUUGCCAUUGCUGGCAACAGAGGAUUGAGCAUCA
B19: chr3:69105919:69106020:+|3pUTR|ENSG00000144746|msi1|total|mutant (ssRNA)
RNA: GGGAGUUCUACAGUCCGACGAUCGUGCUGCUUCUGAUUUUUCUUGCAUUUUAAAUUCUCAGCCAACCUACAGCCAUGAUCUUCCGCACAGUGAUAUCACCAUGACUUCACAGACAUGGUCCCGAAUCUGUACCCUUACCCACACAACAGAGGAUUGAGCAUCA
B20: chr4:75597091:75597192:-|CDS|ENSG00000138769|unk|FALSE|unique (ssRNA)
RNA: GGGAGUUCUACAGUCCGACGAUCUAUAAACUAUUUAAAAUAAAAGGCUCAAAAAUUGAUGGAGAAAAAGCUGAAAAAGGCAAUAGAGCUUCAAAUGCCAGCUGUCUCCAUGACAGUAGGACAAGCCACAACAAAAUAGUGCCUCAACAGAGGAUUGAGCAUCA
B21: ENSG00000169057:stop:overlap|stop_codon|ENSG00000169057|stop_codon|NA|stop_codon (ssRNA)
RNA: GGGAGUUCUACAGUCCGACGAUCUCAAGCCUGUCGUUCCAGGACCCAGGAGGGAGAAGCAGCUGCCAGGGGAAGUCUCUUCGUAGGCGGAGGUCAGGAGUCCAAGAGGAGUGAGCAGAGUCACAGAAGCCUCUUAAAGCCUCUCAACAGAGGAUUGAGCAUCA
B22: chr5:159158860:159158961:-|CDS|ENSG00000145860|msi1|FALSE|bound_elsewhere (ssRNA)
RNA: GGGAGUUCUACAGUCCGACGAUCCCAGGAGACCUGCCCUCUGUGCCACUGCCAUCUGAAAAACUCCUCCCAGCUUCCAGGAUUAGGAACUGAGCCAGUUCUACAGCCUCAUGCUGGAGCUGAGCAAAACGUCAUGUUUCAGGACAACAGAGGAUUGAGCAUCA

target: MSI1 full-length (mouse, UniProt Q61474 1-362); experiment: nsRBNS (natural sequence RNA bind-n-seq); RBNS binding buffer (assumed for nsRBNS): 25 mM Tris pH 7.5, 150 mM KCl, 3 mM MgCl2, 0.01% Triton X-100, 500 ug/ml BSA, 20 U/ml SUPERase-In, 4 C; UNK is unkempt and MSI1 is Musashi-1; names of the RNAs are library labels; protein concentration not given here; high values mean tight binding
Chain of UniProt Q61474 (Q61474 whole entry): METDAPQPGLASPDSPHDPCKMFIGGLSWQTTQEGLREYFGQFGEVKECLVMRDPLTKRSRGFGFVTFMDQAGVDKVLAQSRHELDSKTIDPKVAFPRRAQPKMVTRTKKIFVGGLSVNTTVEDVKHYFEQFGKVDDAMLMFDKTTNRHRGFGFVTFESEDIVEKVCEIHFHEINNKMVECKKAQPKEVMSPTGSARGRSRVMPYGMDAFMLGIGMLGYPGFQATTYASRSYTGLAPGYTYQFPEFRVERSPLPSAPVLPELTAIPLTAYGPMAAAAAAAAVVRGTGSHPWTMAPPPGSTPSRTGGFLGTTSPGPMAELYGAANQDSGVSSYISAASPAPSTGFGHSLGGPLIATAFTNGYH

Binder | binding signal [enrichment R]
B1 | 0.309
B2 | 0.272
B3 | 0.748
B4 | 0.299
B5 | 0.472
B6 | 3.03
B7 | 4.43
B8 | 0.309
B9 | 0.557
B10 | 0.266
B11 | 0.313
B12 | 0.457
B13 | 0.383
B14 | 0.33
B15 | 0.402
B16 | 0.539
B17 | 0.36
B18 | 0.767
B19 | 0.461
B20 | 1.25
B21 | 0.715
B22 | 0.432
